Experimental data as given in the supplement of paper PMC3334620.
Whole data set: some 33,000 sequences, median “E-score (-0.5 to 0.5)” near -0.017, cut for the highest 2% near 0.3. Some of the results follow.

molecular target: T1, Sut1 (UniProt P53032); assay: PBM E-score (8-mer binding enrichment) (E-score (-0.5 to 0.5)); higher = stronger / more preferred TF binding; most listed sequences are background and not binding sites; conditions: protein concentration: 200 nM; construct: GST-full length
T1 sequence: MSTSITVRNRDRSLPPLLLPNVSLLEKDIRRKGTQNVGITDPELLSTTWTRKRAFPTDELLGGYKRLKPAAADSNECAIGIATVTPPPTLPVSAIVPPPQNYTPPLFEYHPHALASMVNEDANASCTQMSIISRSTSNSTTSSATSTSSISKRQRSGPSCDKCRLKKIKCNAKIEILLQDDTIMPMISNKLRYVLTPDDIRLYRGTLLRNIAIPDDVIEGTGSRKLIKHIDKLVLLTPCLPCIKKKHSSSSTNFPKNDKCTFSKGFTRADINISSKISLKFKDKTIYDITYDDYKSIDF
Description: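 Universal 'all 10-mer' protein binding microarrays (Agilent AMADID 015681) probed with GST-tagged S. cerevisiae TFs (full-length or DBD) made by in vitro transcription/translation (PURExpress), about 100-200 nM. Bound TF was detected with fluorescent anti-GST. Each ungapped 8-mer (which stands for itself and its reverse complement) is scored by the PBM enrichment score (E-score), a modified Wilcoxon-Mann-Whitney statistic from -0.5 to +0.5, computed with the Universal PBM Analysis Suite. Scale: above 0.35 generally sequence-specific binding.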

Sequence	PBM E-score
TCGTGGAA	-0.00643
CGAGATTA	0.183
AAGAAGCC	0.178
ACATTACT	-0.00641
GAGTAATA	0.272
AGACTCTC	-0.0288
CCATTAAC	0.153
CTGTGCGC	-0.102
TACCTAAA	0.135
GGGCGGAC	0.106
ATAACTGA	0.21
TGGCACAA	-0.0828
GTTGAAAC	0.109
CTTCACAC	0.103
ATAGTAGG	0.106
AGGTTCAA	0.0608
CGTTTTGA	0.0479
AGTTGAAA	0.122
CCAGTGGA	-0.171
CCGACAAG	0.115
ATATGTGA	0.0554
CCCTCTCC	-0.24
CATCTGCG	-0.0835
CTCCGGGA	0.436
AGATGCGA	0.0111

Sequence	PBM E-score
CCAAGAGA	-0.157
GGTTCGGA	0.423
CACGTTGA	0.0377
TCTACAGA	-0.0602
ATTTAACC	0.154
GTTTAGCA	-0.00747
ATGAGCGA	-0.155
AGCAAACG	-0.0413
ACCTCGGA	0.404
AAGCGAGA	-0.0157
GACCCGGC	-0.147
GCGGCACA	-0.0392
AATAGCAC	-0.149
GCGTAGTA	-0.157
CAAATGAC	0.0784
GTCATCAA	-0.0332
AACTCAAC	0.0479
GCCAGGCC	-0.272
ACCTAAGG	-0.166
ATGGGATG	-0.0844
CTGGCACA	-0.333
ATTTTCGC	0.0665
GCGCCTCC	0.011
TAACTCCA	0.143
CTAGCCGA	0.00188

Sequence	PBM E-score
AAGACCGT	-0.0491
CTTATGGC	-0.0561
GTCCAACA	0.0123
CTCGCTGC	-0.152
AGTCCCGA	-0.134
CACTTGTC	-0.15
GGGCTTTA	-0.27
ACGCTGAA	-0.0214
AGCATCAA	0.0178
ACGTCCGG	0.101
AACGTCAT	0.129
AGTTAGGC	-0.0332
ATGCGTCA	-0.0306
GCCTAATA	-0.0305
CCTCATTC	0.00298
TAGACCGA	0.0639
CTATAAAA	0.183
ATCGTATG	0.054
CTGAACCC	-0.0401
CCAACGAA	-0.192
GAAGTTCC	-0.0651
GTACTCCA	-0.0426
GAATTCTA	0.219
GCGACAAC	-0.023
AAGTAACC	0.133

Sequence	PBM E-score
ATGTTGTC	-0.0587
CGAACCCC	0.131
AGGTGCGC	-0.194
CCGGCGGC	0.19
CCACAAGA	-0.0811
CACGACAC	-0.082
AGACACAC	-0.149
GGATAAAA	0.252
ATAGCATG	-0.208
AGTTCAGG	-0.135
CGGGATAA	0.107
AGTGGACA	0.0387
CCTTTGGC	-0.324
ATCTAGCG	-0.0758
CACCTCCG	0.194
CGAATTTC	0.294
CACTAGAA	-0.0449
AGGGGCAC	-0.297
GTCCGAAC	0.397
CGCGTATA	-0.0789
CGGATTAA	0.134
CCGTGGAC	-0.0896
CACAAACG	0.127
GCAACTAC	0.0638
CGAGGAGC	-0.0993

Sequence	PBM E-score
TAGAACAA	0.056
GTTACCGA	-0.0528
CTCTATGC	-0.131
CACGACTA	-0.255
GCTAGCCA	-0.263
CACGGGCC	-0.215
AACAACTA	0.26
TCCAGCGA	-0.0484
ACTCCTAT	0.0886
CACCGTAG	-0.0954
CGGGTACA	-0.0947
CGCCCGCG	-0.188
CGTTGGTC	0.037
CCTTTCGC	-0.0895
GGCCTATA	-0.236
CCATCGCA	-0.183
CTACTCTC	-0.0287
ATACGCTC	0.0983
AGTGCGGC	-0.0836
AATTTTAG	0.0313
CAAGTCGC	-0.294
CCATCTCA	-0.197
ACCTTCAA	0.0614
ACGAGCAC	0.058
AGAAATTG	0.268

Sequence	PBM E-score
GTATCATA	0.241
CTGGACTC	0.0665
AAGCCTTC	-0.11
CGGTGAAG	-0.174
ACGTCAGA	-0.193
ATAGCCCC	-0.325
GCCAAGCA	-0.237
CAGATCAA	-0.271
CCATCAAA	0.0607
GCACACGC	-0.227
AAATAACA	0.204
CTAATACA	0.228
GATACGGC	-0.104
TAATCTAA	0.236
CCAGAAGC	-0.144
CCTTCCCA	-0.0931
AGTGGGAT	0.0335
AAGACCCA	-0.199
GTGTGGTA	0.0338
GTGCTCGA	-0.0737
AAACGCAA	0.162
GAGCATCC	-0.069
CGCAATAC	-0.0615
AGTGCAAC	0.00453
GTGGTGCA	-0.0425

Sequence	PBM E-score
GCCGATCC	-0.192
GCCAAATA	0.0459
AACCAGAC	-0.226
CCATCTGC	-0.0237
ATACGGCC	0.0623
CGGACATA	0.433
CCCCATCG	-0.0507
GAGATGAC	0.0248
GGTCGATA	-0.0842
CGACTCCA	-0.132
TATTAGCA	0.21
ACATGCAC	-0.0846
GACAGCCC	-0.261
CCGTAGGC	-0.11
GTCACCGA	-0.151
CTGATTAC	0.0972
GGATAGTA	0.246
CTAGGGAA	-0.0592
CTATTGGA	0.16
CTCGACAC	-0.208
CGTTGGTA	0.0587
CTGTATTA	0.149
